# Read counts are not given, so values of variants with three or more changes are uncertain.
# B1: LINE1-mini (parent)
# chain: GGCAGAGCUCAACACAGCGUGGCAAAGUGGCUGUGGCUAGACUGCC
# Variants of: B1
# Assay: self-cleavage, relative activity (ratio to wild type); higher = more cleavage; in vitro, sequencing; the parent is a self-cleaving ribozyme
row,Variant,self-cleavage
1,C3U A4U C15U G22C C31G A41G,0.02
2,C3G G19A U43A,1.36
3,C3G U9G C31G U32A C37G,0
4,C3U A6G G22U,0.24
5,C3G G33U G36U U43A,0.19
6,C3G G40C C46A,0.2
7,C3G G40C C46U,0.05
8,C3G G21C G22C C37U,1.32
9,C3U A12G G21U C23A,0.03
10,C3U A4C A14G G29U G30A G36C C46A,1
11,C3U A4C C10U C15U G29A,0.28
12,C3G U28A G30U,0.4
13,C3G U32A C42A,0.06
14,C3G G19A G33U,0.13
15,C3G G30A G44C C46G,0.58
16,C3U A14U G17U C18A C42U,0.14
17,C3U A6G G21C G36U C37G,0
18,C3U A6G A16U U20G U38G,0.1
19,C3U A12C G17A C45U,0
20,C3U A4G G17U U20A G40U,0.03
21,C3U A14G G19C A26C U32C,0.03
22,C3U A4U C18A,0.12
23,C3U A4U C18U,0.08
24,C3U A11G U20G G21A,0.02

row,Variant,self-cleavage
1,C3U A16U A25C,0.1
2,C3U A6C A11U,0.05
3,C3U A4U G21U,0.12
4,C3G U9C U38A,0.02
5,C3G G22C A41G,0.09
6,C3U A12G G27C G44U,0.08
7,C3U A14C U34C,0.08
8,C3G G19U U34G,0.02
9,C3U A4C G22U,0.2
10,C3U A12U G19U,0.18
11,C3G G22A C46U,0.25
12,C3U A4G G29A U34C,0.15
13,C3G U9C C23A G29C G35C,0.01
14,C3G G21U G30U G40U,0.12
15,C3U A6G C8G,0.02
16,C3G G21A G29A,0.29
17,C3U A12C G21C C46A,0.03
18,C3G G19C A24C G36C,0.01
19,C3U A12U U28A G36U,0.16
20,C3U A4G C18G G22U G36C,0.03
21,C3U A14G G17C G19U U28G C46U,0.09
22,C3U A4U G17A C23G,0.1
23,C3U C8A C18U U34C,0.04
24,C3U A25G G29C G44U,0.05

row,Variant,self-cleavage
1,C3G G27A C31A,0.2
2,C3U A4U G5C G22C,0.19
3,C3U A14U G44U,0.06
4,C3G G17A C23U G35U,0.27
5,C3G G19A G22U A25C U32C,0.27
6,C3G U9C A12C G33A,0.02
7,C3U C8A A14C,0
8,C3U A11C G19U C37G,0.02
9,C3U A12C G22C C31U,0.01
10,C3G G21U U28G,0
11,C3U A25C A39G,0.01
12,C3U A11U G19A,0.03
13,C3U A12C G17U U20C G21C C45G,0.04
14,C3U A26G G36U,0.03
15,C3U A4U G22A G27U,0.08
16,C3U A14G C15U A16U,0.12
17,C3U A4G A14U U20A,0.08
18,C3U C8A C37A U38C C45U,0.49
19,C3G U9G C18A U28C C31A U38C,0.05
20,C3U A11C A12C G19C G30U G33U,0
21,C3G U9A A25C,0.03
22,C3U A16G C37A,0.07
23,C3U A4C C18U G27C A39G,0.01
24,C3U A6U C23G,0.15

row,Variant,self-cleavage
1,C3U A6C C13G C23G,0.28
2,C3G U20G U34C C37G,0.17
3,C3U A4C G7U,0.25
4,C3U A14U C15G G22C C42A,0
5,C3U A4G C10A A14G,0.03
6,C3U A11G G33U U34A,0.03
7,C3U A16C A41G C42A C46A,0.08
8,C3G G19U G27U G30U G35C,0.18
9,C3G G35U C45G,0.05
10,C3G G17C G33C C37G A39U,0.03
11,C3G U34G G36U,0.1
12,C3U A41G U43C,0.3
13,C3U A12U A41C,0.03
14,C3U A6U G7C C8A C15A G19A C46G,1.57
15,C3U A12G C23U,0.04
16,C3U A6C G17A U28G,0.08
17,C3G U43G C45U,0.02
18,C3U A6C A12G G22U U28A U34G G40U,0
19,C3U A24G G29A G40C A41C,0.17
20,C3G G7U G44U,0.08
21,C3U A6C U20C C31G,0.04
22,C3U A16U G19C,0.05
23,C3G G19C G22C G36A,0.02
24,C3G U9A C31A U43C,0.2

row,Variant,self-cleavage
1,C3U C8A G36C,0.35
2,C3U A24G U34A U38A,0.06
3,C3U A12C C13G G44A,0.02
4,C3G G22U G40C G44U,0.02
5,C3U A12C G21U A25G U34G,0.01
6,C3U A6C G17U G36C U43A,0.1
7,C3U C8A A12U U38A,0.1
8,C3G U9G G33U G40A C42U,0.11
9,C3U A26U C46G,0.21
10,C3G G29A G40C C46U,0.03
11,C3U A4G G35A G44U,0.04
12,C3U A6G U9C A25G C37G,0.01
13,C3U A41G C42U,0.21
14,C3U A6U A26C,0.58
15,C3G G21A U28G,0.81
16,C3U A4C A6G G29U,0.12
17,C3G U28C G40U,0.06
18,C3U A4G A6C G29A,0.14
19,C3G G29A G36A,0.28
20,C3U A14U G29C,0.09
21,C3G U34C G44C,0.12
22,C3U A4G C8U A14G G22A C23U,0.08
23,C3U A6G A24U G36U,0.17
24,C3U A11G U34A G35A,0.05

row,Variant,self-cleavage
1,C3U A24U G30A,1.25
2,C3U A11G C15G G29U,0.03
3,C3G U28G G33A G35U U38C G40U C42U,0.04
4,C3G U9C G33C,0.1
5,C3U A11U G22A,0.32
6,C3U C8A G35A G40C,0.03
7,C3G G29A G33A,0.16
8,C3U A41C C46U,0.06
9,C3U A25C C42A,0.11
10,C3U A6G A26U G40A,0.1
11,C3U A4G G27A A39C,0.03
12,C3U A11U G17U G21A C31U,0.07
13,C3U A16C C18A G21C A25G A39C,0.01
14,C3G U20G A26U G29C C31G G35A,0.08
15,C3G G19U G22U C45U,0.07
16,C3G G21C A26G G27U C31A C45G,0.01
17,C3U A4G G21U U28A U32A U38C,0.05
18,C3U A4U G7A G27U G33C,0.08
19,C3U A11G A16G A39U A41C,0.03
20,C3U A11U C13G G40U,0.01
21,C3U A14U G27A G44C,0.02
22,C3U A4G A26C U34C U38A C45A,0.11
23,C3G G17U G19A,0.04
24,C3G U9G G27C C37G U38A A39U,0.1

row,Variant,self-cleavage
1,C3G G22U C46G,0.36
2,C3G G29C G30A C46G,0.05
3,C3U A4G U9A G35A,0.39
4,C3U A12G A26U U38C G40C,0.05
5,C3U A16C A41U,0.21
6,C3U A14G C18U A25U C42G,0.08
7,C3U A25C G40C,0.06
8,C3U A6G U9A,0.46
9,C3U A4G C45A,0.08
10,C3U A25G A39U,0.12
11,C3U A6U C10A G27U G35U,0.04
12,C3U A4G G7C C13U A14U G22A A24G,0.08
13,C3U A25G G29C,0.99
14,C3G G21C G22A G35A C37A U43C C45A,0.12
15,C3G U34G G35U,0.04
16,C3U A24C C31A G36C C45U,0.03
17,C3G G7U U9A A14C,0.03
18,C3G U32G G33C,0.04
19,C3U A4C C13U,0.09
20,C3G U9A C18A G19C C37A C45U,0.29
21,C3G U32A G36U,0.09
22,C3U C8G A14C C31A,0.09
23,C3G G35C G36U,0.03

# Reference: the RNAGym collection of RNA variant scans (doi:10.7554/elife.90254)
